# Source: article PMC4336329 (PLoS ONE, 2015)
# Out of some 310,000 compounds screened, about 14,000 (4.5%) showed an effect of 50% or more. Effects have a minus sign here. The list shows a part of the results.
# Biological target: human ether-à-go-go-related gene (hERG) potassium channel (human, UniProt Q12809)
# Test: primary screen, population patch clamp on CHO cells stably expressing hERG
# 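Also: peak tail current of the secondary pulse compared with the same well before compound.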
# Chain of human ether-à-go-go-related gene (hERG) potassium channel (Q12809 whole entry, looked up): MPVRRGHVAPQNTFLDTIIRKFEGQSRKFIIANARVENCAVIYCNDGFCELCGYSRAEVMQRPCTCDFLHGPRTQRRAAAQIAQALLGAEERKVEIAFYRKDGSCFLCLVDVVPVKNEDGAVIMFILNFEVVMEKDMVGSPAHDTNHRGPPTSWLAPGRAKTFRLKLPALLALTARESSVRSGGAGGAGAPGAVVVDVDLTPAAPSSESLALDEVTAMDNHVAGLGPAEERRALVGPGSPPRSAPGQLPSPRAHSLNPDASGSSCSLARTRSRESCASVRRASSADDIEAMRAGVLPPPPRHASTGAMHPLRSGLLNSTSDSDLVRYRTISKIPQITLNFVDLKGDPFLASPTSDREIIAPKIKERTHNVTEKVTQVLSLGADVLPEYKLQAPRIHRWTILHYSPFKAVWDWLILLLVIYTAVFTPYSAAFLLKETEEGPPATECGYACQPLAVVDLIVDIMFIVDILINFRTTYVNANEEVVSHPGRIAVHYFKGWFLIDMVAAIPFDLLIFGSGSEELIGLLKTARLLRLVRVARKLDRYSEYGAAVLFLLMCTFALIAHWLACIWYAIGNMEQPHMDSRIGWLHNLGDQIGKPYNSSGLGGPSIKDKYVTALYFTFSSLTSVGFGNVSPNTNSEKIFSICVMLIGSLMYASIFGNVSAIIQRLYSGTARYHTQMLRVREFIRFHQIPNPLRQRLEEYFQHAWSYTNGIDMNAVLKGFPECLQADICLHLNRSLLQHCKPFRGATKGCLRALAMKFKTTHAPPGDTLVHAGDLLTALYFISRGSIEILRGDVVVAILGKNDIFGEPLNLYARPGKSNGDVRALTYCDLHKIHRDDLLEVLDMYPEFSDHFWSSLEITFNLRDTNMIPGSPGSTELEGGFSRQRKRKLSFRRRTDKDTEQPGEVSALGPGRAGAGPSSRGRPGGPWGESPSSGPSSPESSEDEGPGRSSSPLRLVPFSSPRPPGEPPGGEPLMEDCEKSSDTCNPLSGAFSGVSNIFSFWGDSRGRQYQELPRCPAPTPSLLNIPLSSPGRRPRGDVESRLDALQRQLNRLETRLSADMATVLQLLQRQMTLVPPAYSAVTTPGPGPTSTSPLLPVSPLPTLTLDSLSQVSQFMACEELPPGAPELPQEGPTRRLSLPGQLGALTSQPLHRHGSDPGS
row,SMILES,"hERG current change (%, negative = inhibition) at 10uM [%]"
1,CCc1ccc(C(=O)COC(=O)CNC(=O)c2ccc(Br)o2)cc1,-64
2,CC(=O)c1cccc(NC(=O)CCCN(C)S(=O)(=O)c2ccc(F)cc2)c1,-2.1
3,CCc1nn(C(C)C(=O)NCc2ccc(Cl)cc2)c(=O)c2cc3occc3n12 (centres unmarked),-26.4
4,CSCC(=O)NC1CCCN(C2Cc3ccccc3C2)C1 (centres unmarked),-5.38
5,O=C(CN1CCN(c2ccccn2)CC1)NC1CCCCC1,-12.7
6,CCOC(=O)N1CCC(Nc2nc(OC)nc(OC)n2)CC1,3.57
7,CCOc1ccccc1NC(=O)Nc1ccc(OC)nc1,14.7
8,CCn1nc(C)c(Oc2ccccc2O)c1C,-1.54
9,CCNC(=S)N1CCC(NC(=O)c2ccco2)CC1,6.16
10,Cl.O=C(/C=C/c1ccc(Br)o1)NCCCN1CCOCC1,7.91
11,CC(C)C(NC(=O)c1ccccc1)C(=O)N/N=C\c1ccco1 (centres unmarked),8.7
12,Cc1ccc(S(=O)(=O)N/N=c2\sc3ccccc3n2C)cc1,8.7
13,CN(CC1CCOCC1)C(=O)CC1C(=O)NCCN1Cc1ccc(F)c(F)c1 (centres unmarked),19.5
14,c1ccc(-c2nccc(-c3ccco3)n2)nc1,26
15,O=C(NC(=S)N1CCN(C(c2ccccc2)c2ccccc2)CC1)c1ccc(S(=O)(=O)N2CCOCC2)cc1,-9.25
16,COc1ccccc1-n1c(=O)c2c3c(sc2n2c(=S)[nH]nc12)CCC3,21.1
17,O=C(c1cc(=O)c2ccccc2o1)N1CCN(c2cccc(Cl)c2)CC1,-56.4
18,Cc1cccc(-c2nnc3sc(-c4ccccc4C)nn23)c1,7.95
19,CCCC(c1nnnn1CC(=O)OCC)N(Cc1cc2ccc(C)cc2[nH]c1=O)C1CCCC1 (centres unmarked),8.83
20,COc1ccc(C(C)=O)cc1COC(=O)c1c(C)nn(-c2ccccc2)c1C,-8.58
21,COc1cccc(CN(CC(=O)NC2CCCC2)C(=O)Cn2nnc(-c3cccs3)n2)c1,-18.3
22,Cc1nnsc1S(=O)(=O)c1ccccc1,10.5
23,O=c1[nH]c(/C=C\c2ccc(O)c(Cl)c2)nc(O)c1[N+](=O)[O-],18.8

row,SMILES,"hERG current change (%, negative = inhibition) at 10uM [%]"
1,Cc1cc(=O)oc2cc(OC(C)C(=O)NCCCn3ccnc3)ccc12 (centres unmarked),9.44
2,CN(CC(=O)Nc1cccc(F)c1)C(=O)C1=COCCO1,9.81
3,O=C(Nc1ccc2ccccc2c1)C(c1ccccc1)C1CCCC1 (centres unmarked),24.6
4,C/C(=N\N1CCCCCC1)c1c(O)n(-c2ccccc2)c(=O)[nH]c1=O,-13.9
5,CCOc1ccccc1NC(=O)CCSc1nc2n[nH]c(C)c2c(=N)n1-c1ccccc1Cl,-2.25
6,Cc1ccc(-c2c(C#N)c(N)n(-c3ccc(C)cc3)c(=O)c2C#N)cc1,8.01
7,CCOC(=O)c1cc(-c2ccccc2)sc1NC(=O)C(C)Sc1nnnn1C (centres unmarked),0.647
8,O=C(c1ccccc1F)N1CCN(Cc2nc3sc4c(c3c(=O)[nH]2)CCCC4)CC1,-81.6
9,CCOCCc1nnc(NC(=O)Cc2ccc(Br)cc2)s1,-5.23
10,Cc1nnc(SCC(=O)Nc2ccc3c(c2)OCO3)o1,14.6
11,Cc1ccc(-n2c(Cc3cccn3C)nnc2SCC(=O)N2CCc3ccccc32)cc1,-14.8
12,Cc1ccc(NC(=O)Cn2cnc3c(nnn3Cc3ccc(F)cc3)c2=O)cc1,17.1
13,CCOc1ccc(N2C(=O)CC(Cc3cc(C)cc(C)c3)C2=O)cc1 (centres unmarked),16
14,O=C(O)Cc1ccc(O)c(F)c1,5.72
15,Cc1c(NP(=O)(Oc2ccccc2F)Oc2ccccc2F)c(=O)n(-c2ccccc2)n1C,-4.76
16,COc1ccc(CNC(=O)C(=O)NCCC2CCCCN2S(=O)(=O)c2cccs2)cc1 (centres unmarked),-8.17
17,NNC(=O)C1SCCN1S(=O)(=O)c1ccc(Cl)cc1 (centres unmarked),4.21
18,CN(C)S(=O)(=O)c1ccc(C(=O)Nc2ccn(C)n2)cc1,2.07
19,O=C(c1ccc(NS(=O)(=O)c2cccs2)cc1)N1CCCCC1,-4.46
20,O=C1/C(=C/c2ccncc2)SC(=S)N1Cc1ccccc1,2.45
21,CCn1c(O)c(C#N)c(C)cc1=O,20.1
22,CCCNC(=O)c1ccc(N2CCC3(CC2)CC(c2ccc(Cl)cc2)=NO3)c([N+](=O)[O-])c1,-74.7
23,Nc1cccc(N2C(=O)c3cccc4c(N)ccc(c34)C2=O)c1,17

row,SMILES,"hERG current change (%, negative = inhibition) at 10uM [%]"
1,COc1ccc(OC)c(S(=O)(=O)NCc2cccnc2)c1,4.09
2,CCOC(=O)C1CCCN(S(=O)(=O)c2c(C(=O)N3CCCCC3)c(C)n(C)c2C)C1 (centres unmarked),21
3,COC(=O)CSc1nc2sc3c(c2c(=O)n1-c1ccccc1)CCN(C)C3,-6.82
4,Cc1ccc(Nc2nc(=O)c3cc([N+](=O)[O-])ccc3s2)cc1,15
5,COc1cccc(-n2cnnc2SC(C)C(=O)NC2CCCC2)c1 (centres unmarked),-17.3
6,COc1ccc(OC)c(NC(=O)COC(=O)CCC2CCCC2)c1,5.67
7,COc1ccc(OCc2cc(C(=O)NC3CCc4ccccc43)no2)c(Cl)c1 (centres unmarked),8.2
8,CCOC(=O)C(=O)NCC(c1cccs1)S(=O)(=O)c1ccc(C)cc1 (centres unmarked),-27.7
9,Cc1ccc(S(=O)(=O)Nc2ccc(=O)n(Cc3ccc(Cl)c(Cl)c3)c2)cc1,9.65
10,Cc1cccc(C)c1NC(=O)C1(NC(=O)C2CCCN2C(=O)OC(C)(C)C)CCCCC1 (centres unmarked),-24.7
11,CCOC(=O)c1ccccc1NC(=O)N1CCn2c(C)ccc2C1CC (centres unmarked),2.71
12,Cn1ccsc1=NC(=O)c1ccc(S(C)(=O)=O)c([N+](=O)[O-])c1,-4.76
13,Cc1ccc(-c2cc(-c3ccccc3)cc(-c3ccccc3)[n+]2-c2ccccc2C(=O)O)cc1.[O-][Cl+3]([O-])([O-])[O-],-21.5
14,Cc1cc(NC(=O)CSc2c3c(nc4ccccc24)CCC3)no1,-7.62
15,O=c1c(C(c2nnnn2C2CCCCC2)N2CCCCC2)coc2ccc(Cl)cc12 (centres unmarked),0.931
16,CCOC(=O)c1c(CN(CC)CC)n(-c2ccccc2)c2ccc(O)cc12,-66.7
17,Cc1ccc(Cn2c(N3CCCCCC3)nc3c2c(=O)[nH]c(=O)n3C)cc1,0.362
18,CCCCCCn1cc(C(=O)O)c(=O)c2cc(F)c(N3CCN(C)CC3)cc21,-12.4
19,CN(C)S(=O)(=O)N1CCN(CC(O)COc2ccc(C(=O)c3ccccc3)cc2)CC1 (centres unmarked),-70.2
20,C=CCN(C(=O)c1csnn1)C(C(=O)NCc1ccccc1)c1cccs1 (centres unmarked),-5.05
21,Oc1ccc[n+](/C=C\c2ccccc2)c1.[Br-],4.32
22,CC(=O)N(C)c1ccc(OCC(O)CN(c2ccccc2C)S(=O)(=O)c2ccc(C)cc2)cc1 (centres unmarked),-34.4
23,CCN(CC1COc2ccccc2O1)C(=S)Nc1ccc(F)cc1 (centres unmarked),-14.4

row,SMILES,"hERG current change (%, negative = inhibition) at 10uM [%]"
1,COc1cccc(CN(C)C(=O)CSCC(=O)Nc2cccc(C)c2)c1OC,-15.1
2,Cc1ccccc1-n1c(SCc2c(C)noc2C)nnc1-c1cccnc1,-9.48
3,Cc1cc([N+](=O)[O-])nn1CC(=O)Nc1nc2ccccc2s1,-48.3
4,CCCn1c(=O)c(C(=O)NCc2ccc(OC)c(OC)c2)c(O)c2ccccc21,11.5
5,CN1CCN(Cc2nc3ccccc3c(=O)n2CC#N)CC1,-2.87
6,COc1ccc(N2CCN(C(=O)Cc3ccc(Br)cc3)CC2)cc1,-20.1
7,CCOC(=O)C1CCN(C(=O)Nc2ccc(C)c(Cl)c2)CC1,4.97
8,CCOc1ccc(/C=C/C2=NNC(=O)CC2)cc1,1.19
9,O=C(CN1CCOCC1)n1c2ccccc2c2ccccc21,-12.4
10,O=C(C1CCCN(S(=O)(=O)c2ccc(F)cc2)C1)N1CCCC1 (centres unmarked),5.78
11,CCOC(=O)C(CCCOc1ccccc1)C(=O)OCC,-14.3
12,O=C(c1ccco1)N1CCC(c2nc3c(nnn3Cc3c(Cl)cccc3Cl)c(=O)[nH]2)CC1,-24
13,Nc1nn(-c2ccccc2)c2ccc([N+](=O)[O-])cc12,-8.8
14,CCCCC1CCC(C(=O)N(CC(C)C)c2c(N)n(Cc3ccccc3)c(=O)[nH]c2=O)CC1 (centres unmarked),0.284
15,C/C(=N\NC(=O)CC(C)C)c1c(C(F)(F)F)[nH]n(-c2nc3ccccc3s2)c1=O,8.88
16,COc1ccc(NC(=O)CN(c2ccccc2)S(=O)(=O)N(C)C)cc1Cl,14.1
17,Cc1cc(Cl)ccc1OCC(=O)Nc1cccc(S(=O)(=O)NC2=NCCCCC2)c1,-6.33
18,CCOC(=O)CSc1nnc(-c2ccc([N+](=O)[O-])cc2)o1,-8.45
19,CCN(CC)c1cccc(OCC(=O)N(C)CCC#N)c1,18.9
20,CCNc1nc(N2CCCC2)nc(N2CCCC2)n1,-14.7
